From PubChem BioAssay AID686978 (National Center for Advancing Translational Sciences (NCATS), 2013)
Screen size: about 420,000 compounds; about 64,000 (15%) were called active. This list was built around the results that the source calls inconclusive (neither active nor inactive); the mix of calls is not that of the screen. Calls follow the shape of the dose curve; as a rule, active = well fitted inhibition curve with a large enough effect; inconclusive = small, poorly fitted or top-dose-only effect; inactive = flat fitted curve, though single readings scatter. Potencies of inconclusive entries are left out as doubtful fits.

Test: qHTS for Inhibitors of human tyrosyl-DNA phosphodiesterase 1 (TDP1): qHTS in cells in absence of CPT; also: nearly all actives have a fitted effect of over 55% in size
Settings: DT40 Tdp1-/- hTDP1 cells, no CPT, ATP luminescence, 48 h; activity change, negative = growth inhibition: at 46.2 µM (top of the series) unless noted
Summary of the method: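 Cells were dispensed at 400 per well, compounds added by pin tool, plates incubated ≥48 hr at 37 °C, then CellTiter-Glo added for 30 min at room temperature before luminescence reading. Line: DT40 Tdp1-/- complemented with hTDP1; camptothecin omitted.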
% is scaled to controls: 0 for no effect and ±100 for the full control effect; potency is read from the fitted curve at half-maximal effect; tags tell the direction and shape of the fitted curve.

| Compound | Potency | activity change, negative = growth inhibition |
| --- | --- | --- |
| Fc1ccc(NC(=S)NCCc2ccc(Cl)cc2)cc1 | active: 23.1 µM |  |
| O=C(NC1CCCCC1)C(c1ccc(F)cc1)N(Cc1ccco1)C(=O)c1ccccn1 (stereo not given) |  | inactive: -24.5% |
| CC1CCN(C(=O)C2COc3ccccc3C2)CC1 (stereo not given) |  | inactive: -3.43% |
| Cc1ccc(OCCC(=O)OCC(=O)NC(=O)NC2CCCCC2)cc1 |  | inactive: 2.96% |
| Cc1cc(NC(=O)COC(=O)CCNS(=O)(=O)c2c(Cl)cccc2Cl)no1 |  | inactive: -14.5% |
| COc1cccc(OC)c1C(=O)Nc1ccc(C(=O)c2ccncc2)cc1 | inconclusive [inhibitor, single point] |  |
| COCCNC(=O)C1(C)CCCN(CCOc2ccc(Cl)cc2)C1 (stereo not given) | active: 14.6 µM |  |
| Cc1ccc(C)c(S(=O)(=O)N2CCN(C(=O)Nc3ccccc3)CC2)c1 |  | inactive: -0.749% |
| Cc1ccc(Nc2sc(C(=O)c3ccccc3)c(N)c2C(N)=O)cc1 | inconclusive [inhibitor, partial curve, poor fit] |  |
| O=C(c1cccc(C(F)(F)F)c1)N(c1ccccn1)C1CCCCC1 | inconclusive [inhibitor, partial curve] |  |
| COc1ccc(C(=O)N=C2SC3CS(=O)(=O)CC3N2c2ccc(C(C)=O)cc2)cc1 (stereo not given) |  | inactive: 18.6% |
| COc1cc2nc(NC(=O)c3ccc(Cl)cc3)[nH]c(=O)c2cc1OC | inconclusive [inhibitor, partial curve, poor fit] |  |
| Cc1ccc(-c2nc(CC(=O)Nc3cccc(S(=O)(=O)NC4=NCCC4)c3)cs2)cc1 |  | inactive: -7.48% |
| CC(C)CNc1nc(N)c([N+](=O)[O-])c(N2CCCCCC2)n1 | active: 16.4 µM |  |
| COc1cccc(-c2csc(N3CCN(CC(=O)NNC(=O)c4ccc(Cl)cc4)CC3)n2)c1 | inconclusive [inhibitor, single point] |  |
| CC1=CC(C)(C)N=C(Nc2ccc(C)cc2)S1 | inconclusive [inhibitor, single point] |  |
| CCOC(=O)c1ccccc1NC1c2ccccc2C(=O)N1c1cc(C)ccn1 (stereo not given) | inconclusive [inhibitor, single point] |  |
| CC(C)c1ccc(NC(=O)Nc2nc(C(C)N)cs2)cc1 (stereo not given) | active: 14.6 µM |  |
| O=C(Cn1ncc2c3ccccc3n(Cc3ccc(F)cc3)c2c1=O)NCc1ccccn1 | inconclusive [inhibitor, single point] |  |
| CC(C)CN(C(=O)COC(=O)c1cc2ccccc2cc1O)c1c(N)n(Cc2ccccc2)c(=O)[nH]c1=O | inconclusive [inhibitor, single point] |  |
| COCCn1c(=O)c(-c2cccc(C#N)c2)nc2cnc(Oc3ccc(OC)cc3)nc21 | inconclusive [inhibitor, single point] |  |
| COc1ccc(-c2noc(Cc3ccccc3OC)n2)cc1 | inconclusive [inhibitor, partial curve, poor fit] |  |
| COc1ccc(NC(=O)C(c2ccc(C)cc2)N(C)C(=O)c2cnccn2)cc1 (stereo not given) |  | inactive: -9.48% |
| CN(C)S(=O)(=O)c1ccc(NC(=O)c2ccc([N+](=O)[O-])cc2)cc1 | inconclusive [inhibitor, partial curve, poor fit] |  |

| Compound | Potency | activity change, negative = growth inhibition |
| --- | --- | --- |
| O=C(Nc1cccc(F)c1)N1CC=C(n2c(=O)[nH]c3ccccc32)CC1 | inconclusive [inhibitor, single point] |  |
| Cc1ccc(SCC(=O)Nc2ccc3oc(-c4cccc(Cl)c4)nc3c2)cc1 | active: 20.6 µM |  |
| CCC1(c2ccc(F)cc2)NC(=O)N(CC(=O)Nc2cccc(S(=O)(=O)N3CCCC3)c2)C1=O (stereo not given) | inconclusive [inhibitor, single point] |  |
| CCOc1ccc(CN2C(=O)c3ccccc3C2=O)cc1C(=O)Nc1nnc(SCC)s1 | inconclusive [inhibitor, single point] |  |
| Cc1cc(-c2ccc(C)c(S(=O)(=O)NCC3CCN(Cc4ccccc4F)CC3)c2)on1 | active: 23.1 µM |  |
| COC(=O)[C@]12CCCCC=C1N(Cc1ccccc1)C(=O)[C@H](CC(=O)NCc1cccc(C(F)(F)F)c1)C2 | inconclusive [inhibitor, single point] |  |
| COc1ccc(-c2oc3ncnc(N)c3c2-c2ccccc2)cc1 | inconclusive [inhibitor, partial curve] |  |
| Cc1ccccc1N1CCN(C2CCCN(C(=O)c3ccnn3C)C2)CC1 (stereo not given) | inconclusive [inhibitor, single point] |  |
| COc1cccc(OC)c1-c1cnc(NC(C)=O)cn1 |  | inactive: 1.16% |
| CC[N+](C)(C)c1ccc(/C=C/c2ccnc3ccccc23)cc1 | active: 0.112 µM |  |
| COc1ccc(-c2cc(-c3ccccc3)c(C#N)c(S(C)=O)n2)cc1 (stereo not given) | active: 3.26 µM |  |
| COc1ccc(Br)cc1C(=O)N/N=C/c1ccc([N+](=O)[O-])cc1 | inconclusive [inhibitor, single point] |  |
| CC(C)C(C)NC(=O)CN1C(=O)NC2(CCCc3ccccc32)C1=O (stereo not given) |  | inactive: 1.97% |
| Cc1ccc(C)c(N2CCN(S(=O)(=O)c3c(C)noc3/C=C/N(C)C)CC2)c1 | active: 18.4 µM |  |
| O=C(NCc1n[nH]c(=S)n1-c1ccc(Cl)c(Cl)c1)c1ccc(S(=O)(=O)N2CCOCC2)cc1 |  | inactive: -5.9% |
| COC(=O)c1ccc(OC(C)C(=O)c2ccc(C)cc2)cc1 (stereo not given) | inconclusive [inhibitor, single point] |  |
| O=C(Nc1ccccc1)c1cc(S(=O)(=O)N2CCOCC2)cs1 | inconclusive [inhibitor, single point] |  |
| CCCN(C(=O)c1cc(S(=O)(=O)N(C)c2ccccc2OC)ccc1C)C1CCS(=O)(=O)C1 (stereo not given) |  | inactive: -26.7% |
| O=C(N/N=C/c1ccccc1)NC1CCCCC1 | inconclusive [inhibitor, single point] |  |
| Cc1ccc(C(c2c(O)cc(C)n(Cc3ccco3)c2=O)N2CCC(C)CC2)cc1 (stereo not given) |  | inactive: -13.1% |
| CCN1C(=O)[C@H]2[C@@H](c3ccc(C)cc3)N3C(=O)N(c4ccccc4)C(=O)[C@@]3(Cc3ccc(Cl)cc3)[C@H]2C1=O | inconclusive [inhibitor, single point] |  |
| COc1cccc2c(C)cc(N3CCCCCC3)nc12 | inconclusive [inhibitor, partial curve, poor fit] |  |
| Cc1ccc(NC(=O)CSc2nc3ccccc3c(=O)n2CCCN2CCCCC2)cc1Cl | active: 20.6 µM |  |
| CCN1CCCC1CN(Cc1cc2c(C)cc(C)cc2[nH]c1=O)C(=O)NC1CCCCC1 (stereo not given) | inconclusive [inhibitor, single point] |  |

| Compound | Potency | activity change, negative = growth inhibition |
| --- | --- | --- |
| O=C(c1cc(F)c(F)cc1Cl)N1CCCc2ccccc21 | inconclusive [inhibitor, partial curve] |  |
| COCc1ccc(CN2CCOc3ccc(C4=Cc5ccccc5C4)cc3C2)o1 |  | inactive: -22.8% |
| CC(=O)c1c(C)[nH]c(C(=O)CN2CCN(S(=O)(=O)c3ccccc3F)CC2)c1C | inconclusive [inhibitor, single point] |  |
| C/C(=N/NC(=O)COc1ccc(C(C)(C)C)cc1)c1ccc(N2CCOCC2)cc1 | inconclusive [inhibitor, partial curve] |  |
| O=C(CCc1nnc2ccc(N3CCCC3)nn12)Nc1ccc(F)cc1F |  | inactive: -29.6% |
| Cc1ccc(C)c(C2=NNC(=NCc3ccccc3)SC2)c1 | inconclusive [inhibitor, single point] |  |
| COc1ccc(C2(CNC(=O)C(=O)Nc3ccc(C)cc3)CCOCC2)cc1 | inconclusive [inhibitor, single point] |  |
| OCCN1CCN(C2Cc3cc(Cl)ccc3Sc3ccc(Cl)cc32)CC1 (stereo not given) (tested in a mixture with another compound) | inconclusive [inhibitor, single point] |  |
| Cc1cc(C)cc(NC(=O)C2CC(=O)N(c3ccccc3)C2)c1 (stereo not given) | inconclusive [inhibitor, single point] |  |
| O=C(Nc1ccc(Cl)c(S(=O)(=O)N2CCCCC2)c1)c1ccncc1 | active: 13 µM |  |
| CCOc1ccc2c(c1)/C(=N/N1C(=O)c3ccccc3C1=O)C(=O)N2 |  | inactive: -24.4% |
| COc1cc(N2CCCC2)c(OC)cc1/C=C(/C#N)c1ccc(F)cc1 | inconclusive [inhibitor, single point] |  |
| CCOC(=O)C1CCCN(Cc2ccc(OCc3ccccc3)c(OC)c2)C1 (stereo not given) | inconclusive [inhibitor, single point] |  |
| CC(C)c1nnc(SCC(=O)N2CCc3ccccc32)n1N |  | inactive: -13.7% |
| CCOC(=O)C(Cc1c[nH]c2ccccc12)NC(=O)c1ccccc1Br (stereo not given) | inconclusive [inhibitor, partial curve] |  |
| Cc1ccccc1CCNC(=O)c1ccc2c(c1)nc1n2CCCCC1 | inconclusive [inhibitor, single point] |  |
| COc1ccc2cc3[n+](cc2c1OC)CCc1cc2c(cc1-3)OCO2 | active: 1.33 µM [middle of 4 runs] |  |
| CCOC(=O)C1C(=O)C=C(Nc2ccccc2F)CC1c1ccccc1 (stereo not given) | inconclusive [inhibitor, single point] |  |
| C=CC[C@H](c1ccc(F)cc1)N(CC(C)C)S(=O)(=O)C=C | active: 11.2 µM |  |
| Cc1cccc(-c2nc(CN3CCCC(C(=O)NCCc4ccc(Cl)cc4)C3)c(C)o2)c1 (stereo not given) | active: 8.2 µM |  |
| CCCCN1C(=O)C(CC(=O)NCCCCc2ccccc2)CC(C(=O)N2CCCCCC2)=C1C (stereo not given) | active: 18.4 µM |  |
| Cc1cc(C)n2cc(CSc3ncccc3C(=O)O)nc2n1 | inconclusive [inhibitor, single point] |  |
